# Laboratory results taken from the supplement of paper PMC8728848.
# Some of the results follow.
# B1: Pp2-A2 (Arabidopsis thaliana), Q07098 (protein)
# chain: MPSNGDLDRQIEQLMECKPLSEADVRTLCDQARAILVEEYNVQPVKCPVTVCGDIHGQFYDLIELFRIGGNAPDTNYLFMGDYVDRGYYSVETVSLLVALKVRYRDRLTILRGNHESRQITQVYGFYDECLRKYGNANVWKYFTDLFDYLPLTALIESQVFCLHGGLSPSLDTLDNIRSLDRIQEVPHEGPMCDLLWSDPDDRCGWGISPRGAGYTFGQDIAAQFNHNNGLSLISRAHQLVMEGFNWCQDKNVVTVFSAPNYCYRCGNMAAILEIGENMEQNFLQFDPAPRQVEPDTTRKTPDYFL
# Legend:
# Test in all cases: glycan array binding signal (z-score within array); higher = stronger binding
# Conditions in all cases: glycan notation: IUPAC condensed, linker removed
# [1] = target: Fuc(a1-2)[Gal(a1-3)]Gal
# Procedure, shortened: (§1)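 The Consortium for Functional Glycomics database supplied 3228 glycan arrays, of which those lacking an available protein sequence were dropped. The binding signal, a within-array Z-score, was averaged across arrays of the same protein sequence and across linkers. Negative scores can be read as non-binding.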
# [2] = target: Fuc(a1-2)[Gal(a1-3)]Gal(b1-3)GlcNAc
# Procedure, shortened: as §1
# [3] = target: Fuc(a1-2)[Gal(a1-3)]Gal(b1-3)GlcNAc(b1-2)Man(a1-3)[Fuc(a1-2)[Gal(a1-3)]Gal(b1-3)GlcNAc(b1-2)Man(a1-6)]Man(b1-4)GlcNAc(b1-4)GlcNAc
# Procedure, shortened: as §1
# [4] = target: Fuc(a1-2)[Gal(a1-3)]Gal(b1-4)Glc
# Procedure, shortened: as §1
# [5] = target: Fuc(a1-2)[Gal(a1-3)]Gal(b1-4)GlcNAc
# Procedure, shortened: as §1
# [6] = target: Fuc(a1-2)[Gal(a1-3)]Gal(b1-4)GlcNAc(b1-2)Man(a1-3)[Fuc(a1-2)[Gal(a1-3)]Gal(b1-4)GlcNAc(b1-2)Man(a1-6)]Man(b1-4)GlcNAc(b1-4)GlcNAc
# Procedure, shortened: as §1
# [7] = target: Fuc(a1-2)[Gal(a1-3)]Gal(b1-4)[Fuc(a1-3)]GlcNAc
# Procedure, shortened: as §1
# [8] = target: Fuc(a1-2)[Gal(a1-4)]Gal(b1-4)GlcNAc
# Procedure, shortened: as §1
# [9] = target: Fuc(a1-2)[GalNAc(a1-3)]Gal
# Procedure, shortened: as §1
# [10] = target: Fuc(a1-2)[GalNAc(a1-3)]Gal(b1-3)GalNAc(a1-3)[Fuc(a1-2)]Gal(b1-4)GlcNAc
# Procedure, shortened: as §1
# [11] = target: Fuc(a1-2)[GalNAc(a1-3)]Gal(b1-3)GlcNAc
# Procedure, shortened: as §1
# [12] = target: Fuc(a1-2)[GalNAc(a1-3)]Gal(b1-3)GlcNAc(b1-2)Man(a1-3)[Fuc(a1-2)[GalNAc(a1-3)]Gal(b1-3)GlcNAc(b1-2)Man(a1-6)]Man(b1-4)GlcNAc(b1-4)GlcNAc
# Procedure, shortened: as §1
# [13] = target: Fuc(a1-2)[GalNAc(a1-3)]Gal(b1-4)Glc
# Procedure, shortened: as §1
# [14] = target: Fuc(a1-2)[GalNAc(a1-3)]Gal(b1-4)GlcNAc
# Procedure, shortened: as §1
# [15] = target: Fuc(a1-2)[GalNAc(a1-3)]Gal(b1-4)GlcNAc(b1-2)Man(a1-3)[Fuc(a1-2)[GalNAc(a1-3)]Gal(b1-4)GlcNAc(b1-2)Man(a1-6)]Man(b1-4)GlcNAc(b1-4)GlcNAc
# Procedure, shortened: as §1
# [16] = target: Fuc(a1-2)[GalNAc(a1-3)]Gal(b1-4)GlcNAc(b1-3)Gal(b1-4)GlcNAc
# Procedure, shortened: as §1
# [17] = target: Fuc(a1-2)[GalNAc(a1-3)]Gal(b1-4)GlcNAc(b1-3)Gal(b1-4)GlcNAc(b1-3)Gal(b1-4)GlcNAc
# Procedure, shortened: as §1
# [18] = target: Fuc(a1-2)[GalNAc(a1-3)]Gal(b1-4)[Fuc(a1-3)]GlcNAc
# Procedure, shortened: as §1
# [19] = target: Fuc(a1-2)[GalNAc(a1-4)]Gal(b1-4)GlcNAc
# Procedure, shortened: as §1
# [20] = target: Fuc(a1-2)[GalNAc(b1-3)]Gal
# Procedure, shortened: as §1
# [21] = target: Fuc(a1-3)GlcNAc
# Procedure, shortened: as §1
# [22] = target: Fuc(a1-3)[Gal(b1-4)]Glc6S
# Procedure, shortened: as §1
# [23] = target: Fuc(a1-3)[Gal(b1-4)]GlcNAc
# Procedure, shortened: as §1
# [24] = target: Fuc(a1-3)[Gal(b1-4)]GlcNAc(b1-2)Man(a1-3)[Fuc(a1-3)[Gal(b1-4)]GlcNAc(b1-2)Man(a1-6)]Man(b1-4)GlcNAc(b1-4)GlcNAc
# Procedure, shortened: as §1
# [25] = target: Fuc(a1-3)[Gal(b1-4)]GlcNAc(b1-3)Gal(b1-3)[Fuc(a1-4)]GlcNAc
# Procedure, shortened: as §1
# [26] = target: Fuc(a1-3)[Gal(b1-4)]GlcNAc(b1-3)GalNAc
# Procedure, shortened: as §1
# [27] = target: Fuc(a1-3)[Gal(b1-4)]GlcNAc(b1-4)Gal(b1-4)[Fuc(a1-3)]GlcNAc
# Procedure, shortened: as §1
# [28] = target: Fuc(a1-3)[Gal(b1-4)]GlcNAc(b1-4)Gal(b1-4)[Fuc(a1-3)]GlcNAc(b1-4)Gal(b1-4)[Fuc(a1-3)]GlcNAc
# Procedure, shortened: as §1
# [29] = target: Fuc(a1-3)[Gal(b1-4)]GlcNAc(b1-6)[Gal(b1-3)GlcNAc(b1-3)]Gal(b1-4)Glc
# Procedure, shortened: as §1
# [30] = target: Fuc(a1-3)[Gal(b1-4)]GlcNAc6S
# Procedure, shortened: as §1
binder,measurement,setting,value
B1,glycan array binding signal (z-score),[1],-0.273
same,glycan array binding signal (z-score),[2],-0.468
same,glycan array binding signal (z-score),[3],-0.613
same,glycan array binding signal (z-score),[4],-0.444
same,glycan array binding signal (z-score),[5],-0.404
same,glycan array binding signal (z-score),[6],-0.113
same,glycan array binding signal (z-score),[7],-0.029
same,glycan array binding signal (z-score),[8],-0.244
same,glycan array binding signal (z-score),[9],-0.337
same,glycan array binding signal (z-score),[10],0.21
same,glycan array binding signal (z-score),[11],-0.343
same,glycan array binding signal (z-score),[12],-0.54
same,glycan array binding signal (z-score),[13],-0.32
same,glycan array binding signal (z-score),[14],-0.242
same,glycan array binding signal (z-score),[15],-0.296
same,glycan array binding signal (z-score),[16],-0.661
same,glycan array binding signal (z-score),[17],0.638
same,glycan array binding signal (z-score),[18],-0.064
same,glycan array binding signal (z-score),[19],-0.461
same,glycan array binding signal (z-score),[20],-0.666
same,glycan array binding signal (z-score),[21],-0.508
same,glycan array binding signal (z-score),[22],-0.07
same,glycan array binding signal (z-score),[23],-0.104
same,glycan array binding signal (z-score),[24],-0.237
same,glycan array binding signal (z-score),[25],-0.182
same,glycan array binding signal (z-score),[26],0.295
same,glycan array binding signal (z-score),[27],1.34
same,glycan array binding signal (z-score),[28],-0.435
same,glycan array binding signal (z-score),[29],-0.662
same,glycan array binding signal (z-score),[30],0.633
